Measured values taken from PubChem BioAssay AID588855 (National Center for Advancing Translational Sciences (NCATS), 2011).
Screen size: about 410,000 compounds; about 5,000 (1.2%) were called active. The inconclusive results got no clear call from the source; some entries with a clear call stand among them for comparison. Calls come from the whole dose curve; as a rule, active = well fitted inhibition curve with a large enough effect; inconclusive = small, poorly fitted or top-dose-only effect; inactive = no such curve, though single readings can be large or run the other way. Potencies beside an inconclusive call are fits to weak or partial responses and may not hold up.

Assay: qHTS for Inhibitors of TGF-b; note: nearly all actives have a fitted effect of over 65% in size
Details: HepG2 CAGA-GFP TGF-b/SMAD3 reporter, GFP fluorescence, 18 h, TGF-beta stimulated, 500 pg/mL final; series mostly up to 46.1 µM
In short: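 Smad-responsive CAGA-GFP expression was quantified in HEPG2 cells exposed to compounds and 500 pg/mL final TGF-beta for 18 h at 37 degrees C; unstimulated wells defined full inhibition.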
Potency is the fitted concentration of half-maximal effect; tags give direction and shape of the fitted curve.

SMILES	Potency
CCC(C)NC(=S)Nc1ccccc1OC (configuration not stated)	inactive
CCN(CC)S(=O)(=O)c1cccc(NC(=O)c2ccc(SC)cc2OC)c1	inconclusive: 17.8 µM [inhibitor, single point]
CCOC(=O)c1c(NS(=O)(=O)c2ccc(Br)cc2)sc2c1CCC2	inconclusive: 35.5 µM [inhibitor, single point]
CC(Nc1cccc2ccccc12)C(=O)N/N=C/c1ccccn1 (configuration not stated)	inconclusive: 0.158 µM [inhibitor, full curve, poor fit]
COc1ccc(/C=c2/sc3n(c2=O)C(c2ccccc2OC)C2=C(N=3)c3ccccc3CC2)cc1O (configuration not stated)	inconclusive: 35.5 µM [inhibitor, single point]
C/C(=N\NC(=S)NCCc1ccccc1)c1ccc(Cl)cc1	inconclusive: 25.1 µM [inhibitor, single point]
O=C(Cc1cccs1)NNC(=S)NC(=O)c1ccc(F)c(F)c1	inconclusive: 17.8 µM [inhibitor, single point]
Cc1ccc(C(NC(=O)NCCCN2CCOCC2)=C(Cl)Cl)cc1F	inconclusive: 1.58 µM [inhibitor, partial curve, poor fit]
C(=N\Nc1nc(N2CCCCC2)nc(N2CCCCC2)n1)/c1c[nH]c2ccccc12	inconclusive: 35.5 µM [inhibitor, single point]
Cc1ccc(-c2noc(-c3ccc(NCc4cccnc4)c([N+](=O)[O-])c3)n2)cc1	inactive
CCOc1cc2c(cc1O)CCC1C2CCC2(C)C(O)CCC12 (configuration not stated)	inconclusive: 22.4 µM [inhibitor, single point]
CCc1ccccc1NC(=O)CN(C)C(=O)CSc1nnc(Nc2ccc(C)cc2)s1	inactive
Cc1ccc(NC(=O)CSc2n[nH]c(-c3ccncc3)n2)cc1C	inconclusive: 22.4 µM [inhibitor, partial curve, poor fit]
CC(=O)Nc1ccc(N(C(=O)Cc2c[nH]c3ccccc23)C(C(=O)NC2CCCCC2)c2ccco2)cc1 (configuration not stated)	inconclusive: 22.4 µM [inhibitor, partial curve, poor fit]
CC1(C(=O)NS(=O)(=O)c2ccccc2)CCN1C(=O)CC1CCCCC1 (configuration not stated)	inactive
Cc1cc(Br)ccc1NC(=O)CCCOc1cc(=O)n(C)c2ccccc12	inconclusive: 35.5 µM [inhibitor, single point]
CCSc1ncc(Cl)c(C(=O)Nc2sc3c(c2C(=O)NCCOC)CCCC3)n1	inactive
CCOc1ccc(C(C(=O)NC2CCCC2)N(C(=O)c2snc(C(N)=O)c2N)C2CCCC2)cc1 (configuration not stated)	inconclusive: 0.708 µM [inhibitor, full curve, poor fit]
Cc1cc(N2CCCCC2)nc(NCc2ccccc2)n1	inconclusive: 12.6 µM [inhibitor, partial curve, poor fit]
COc1cc(C(CC(=O)Nc2cccc(C(C)=O)c2)N2Cc3ccccc3C2=O)cc(OC)c1OC (configuration not stated)	inactive
CN(C(=S)NC(=O)C1CC1)c1ccc(O)cc1	inconclusive: 35.5 µM [inhibitor, single point]
COc1ccc(S(=O)(=O)NCC(=O)O)cc1C(=O)NC1CCCCC1	inactive
CN(C)c1ccnc2c[cH-]cc12.[Fe].c1ccc(-[c-]2[c-](-c3ccccc3)[c-](-c3ccccc3)[c-](-c3ccccc3)[c-]2-c2ccccc2)cc1 (configuration not stated)	inactive
COc1ccc(Cc2c(-c3cccc(Cl)c3)nc3ccc(C)cn23)c(C)c1	inconclusive: 20 µM [inhibitor, single point]

SMILES	Potency
Cc1cccc(NC(=O)c2c(O)c3ccccc3n(C)c2=O)c1	inactive
CCOC(=O)c1sc(NC(=O)Cn2nnc3sc4c(c3c2=O)CCCC4)nc1C	inconclusive: 35.5 µM [inhibitor, single point]
Nc1nonc1C(=O)NCCNCc1ccccc1F	inactive
CCN1CCN(C(c2cccs2)C(C)NC(=S)Nc2cc(C)ccc2C)CC1 (configuration not stated)	inactive
Cc1cc(C(=O)COC(=O)c2ccc3c(c2)NC(=O)CS3)c(C)n1CC1CCCO1 (configuration not stated)	inconclusive: 6.31 µM [inhibitor, single point]
CC(=O)C1=C(c2ccc(Cl)c(Cl)c2)N(C(C)=O)n2c(nnc2-c2ccccc2)S1	inconclusive: 0.562 µM [inhibitor, full curve, poor fit]
Cc1ccc(NC(=O)CNc2ccc(Cl)c(Cl)c2)cc1S(=O)(=O)N(C)C	active: 10 µM
O=C(COCc1cc(-c2ccc(F)cc2)on1)Nc1cc(Cl)ccc1O	inconclusive: 6.31 µM [inhibitor, full curve, poor fit]
C=CCC1(CC=C)CCCN1C(=O)c1cc(COc2cccc(C(F)(F)F)c2)on1	inconclusive: 35.5 µM [inhibitor, partial curve, poor fit]
COc1ccc(C)cc1C(=O)CCC(=O)NCCc1ccc(S(N)(=O)=O)cc1	inactive
O=C1c2ccncc2C(=O)N1CO	inactive
COc1ccc(CN2CCN(C(=O)c3cccc4ccccc34)CC2)cc1Br	inconclusive: 28.2 µM [inhibitor, single point]
Cc1cccc(N2CCN(C(=O)Cn3ncc4c5ccccc5n(C)c4c3=O)CC2C)c1 (configuration not stated)	inactive
COC(=O)c1sccc1NC(=O)COc1ccc(C)cc1	inactive
NS(=O)(=O)c1cc(C(=O)OCCNC(=O)c2ccccc2)c(Cl)cc1Cl	inactive
COc1ccc(/C=C/c2ccc3cccc(O)c3n2)c(OC)c1OC	inconclusive: 35.5 µM [inhibitor, single point]
O=C(NCc1ccccc1)C1=C[C@H](c2ccc(Br)cc2)C[C@H](OCc2ccc(CO)cc2)O1	inconclusive: 35.5 µM [inhibitor, single point]
O=S(=O)(Nc1ccc(F)c(Cl)c1)c1ccc(Br)s1	inconclusive: 11.2 µM [inhibitor, partial curve, poor fit]
S=c1[nH]nc(C2CCCCC2)n1/N=C/c1cccs1	inconclusive: 35.5 µM [inhibitor, single point]
CCOC(=O)c1ccc(N2C(=O)c3n[nH]c(-c4cccs4)c3C2c2ccc(CC)cc2)cc1 (configuration not stated)	active: 0.891 µM
COc1cc(NC(=S)NCc2ccco2)cc(OC)c1	inactive
O=C1CSC(c2cccc([N+](=O)[O-])c2)N1CCc1ccccc1 (configuration not stated)	inactive
CC1(c2nnc(Cc3ccccc3)o2)CC(c2ccc(OC(F)(F)F)cc2)=NO1 (configuration not stated)	inconclusive: 10 µM [inhibitor, partial curve, poor fit]
O=C1C=C(c2cc(C(F)(F)F)cc(C(F)(F)F)c2)C[C@@H](c2ccc3c(c2)OCO3)C1	inconclusive: 0.282 µM [inhibitor, full curve, poor fit]

SMILES	Potency
Fc1ccc(CNC(=S)Nc2ccc(Cl)cc2)cc1	inconclusive: 35.5 µM [inhibitor, single point]
COc1ccc(-n2cc(-c3ccc4c(c3)OCO4)n(CC(=O)Nc3cccc(C)c3C)c2=O)c(OC)c1	inconclusive: 4.47 µM [inhibitor, partial curve, poor fit]
CCN(CC)c1ccc2c(O)cc(=O)oc2c1	inactive
CC(=O)N1CCc2c(sc(NC(=O)Cc3ccc(F)cc3)c2C#N)C1	inactive
COc1ccc(C(=O)c2sc3nc(-c4ccc(C)cc4)cc(C(F)(F)F)c3c2N)cc1	inactive
COc1cc2c(cc1[N+](=O)[O-])-c1ccc([N+](=O)[O-])cc1C2=NO	inactive
CCCCc1c(C)nc2c(-c3ccc(Cl)cc3)c(C)[nH]n2c1=O	inconclusive: 15.8 µM [inhibitor, partial curve, poor fit]
Cc1ccc(OCc2cc(C(=O)N(C)Cc3cc(C4CC4)n[nH]3)no2)cc1C	inconclusive: 12.6 µM [inhibitor, single point]
Cc1ccc(C)c(N2CCN(S(=O)(=O)c3ccc(-c4coc(C)n4)cc3)CC2)c1	inconclusive: 35.5 µM [inhibitor, single point]
CC(O)CN(C)CC/C=C1/c2ccccc2CSc2ccccc21 (configuration not stated)	inactive
O=S(=O)(NCc1ccncc1)c1ccc(Br)s1	inconclusive: 8.91 µM [inhibitor, partial curve, poor fit]
Fc1ccc(NC(=S)N/N=C/c2ccc(F)c(F)c2)cc1	inconclusive: 17.8 µM [inhibitor, single point]
C/C(=N\Nc1nccnc1Cl)c1ccc(F)cc1	inactive
Cc1ccc(NC(=O)c2cc(Cl)ccc2[N+](=O)[O-])cc1C	inactive
Oc1cc(-c2ccncc2)cc2cccnc12	inconclusive: 14.1 µM [inhibitor, single point]
Cc1ccc(/C=C/C(=O)Nc2ccc(Oc3ccccc3)cc2)o1	inconclusive: 11.2 µM [inhibitor, partial curve, poor fit]
COc1cc(C(=O)Nc2ccc3c(c2)N(C(=O)CCN(C)C)c2ccccc2CC3)cc(OC)c1OC	inactive
CC(=O)Nc1ccc(C(=O)OCC(=O)c2ccc(C)c([N+](=O)[O-])c2)cc1	inactive
COc1cc(/C=N/NC(=O)CSc2n[nH]c(=O)[nH]c2=O)cc(OC)c1O	inactive
Cc1ccc(O)c(C(=O)C=Cc2ccccc2)c1	inactive
CCOC(=O)C1=C(C)N(CC)C(=S)NC1c1ccc(Cl)cc1 (configuration not stated)	inactive
CN1CCC(N(C)C(=O)COc2ccccc2Cl)CC1	inconclusive: 20 µM [inhibitor, single point]
Cc1ccc(-n2nnnc2SCC(=O)NC2CCCc3ccccc32)c(C)c1 (configuration not stated)	inconclusive: 22.4 µM [inhibitor, single point]
Cc1cc2nc(-c3ccccc3)cc(=O)n2[nH]1	inactive
